Consider twelve compounds from the supplement of paper PMC4604168 (melanoma cell lines).

Some of the results follow. Repeats are few or missing, and single values can be far off.

Some test systems named below: WM115; WM1716; WM1745; WM3526; WM3619; WM451Lu.
Common to all, as to assay: cell count relative to DMSO control; melanoma cells; higher = more viable cells
Common to all, as to details: library dose: low library concentration; 72 h
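Note: cell number obtained by counting DAPI-stained nuclei in high-throughput microscope images with image analysis software, screen run in 1,536-well plates.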

Regarding `C=CCn1c(=O)c2cnc(Nc3ccc(N4CCN(C)CC4)cc3)nc2n1-c1cccc(C(C)(C)O)n1` + COc1ccc(-c2ccc3c(N4CCOCC4)nc(N4C[C@@H](C)O[C@@H](C)C4)nc3n2)cc1CO [KU0063794] (first compound 0.02 µM, partner dose 0.02 µM), the cell count in the test on WM115 worked out at 79.8%; with WM1716, 93.6%; in the test on WM1745, 83.7%; in the test with WM3526, 94.2%; in the test on WM3619 it was 58%; in the test with WM451Lu, 121%.

For `CO[C@@H]1[C@H](N(C)C(=O)c2ccccc2)C[C@H]2O[C@]1(C)n1c3ccccc3c3c4c(c5c6ccccc6n2c5c31)C(=O)NC4` [Midostaurin] + CC(C)CCN1c2nc(Nc3cc(F)c(O)c(F)c3)ncc2N(C)C(=O)C1C [BID1870] (first compound 0.08 µM, partner dose 0.2 µM), the cell count is 84.8% in the test on WM115; 76.1% in the test on WM1716; 80% in the test with WM1745; 97.6% with WM3526; 74.7% with WM3619; 95.2% with WM451Lu.

Turning to `C=CCn1c(=O)c2cnc(Nc3ccc(N4CCN(C)CC4)cc3)nc2n1-c1cccc(C(C)(C)O)n1` + OCCn1cc(-c2cnc3nnn(Cc4ccc5ncccc5c4)c3n2)cn1 [PF04217903] (first compound 0.02 µM, partner dose 1 µM), the cell count in the test on WM115 turned out to be 91%; with WM1716, 91.9%; in the test with WM1745 it was 67.9%; with WM3526, 45.1%; with WM3619, 92.5%; in the test with WM451Lu it was 75.6%.

On to `C[C@]1(c2nc3c(C(N)=O)cccc3[nH]2)CCCN1` [Veliparib] + Cn1cc(/C=C2\C(=O)Nc3cccnc32)c2ccccc21 [GW441756] (first compound 1.4 µM, partner dose 0.4 µM), for which the cell count in the test on WM115 was 95.5%; in the test with WM1716, 94.1%; in the test with WM1745, 91.2%; with WM3526, 93.2%; with WM3619, 144%; in the test with WM451Lu it was 103%.

Regarding `C=CCn1c(=O)c2cnc(Nc3ccc(N4CCN(C)CC4)cc3)nc2n1-c1cccc(C(C)(C)O)n1` + O=C(O)C(=O)Nc1sc2c(c1C(=O)O)CCNC2 [TCS401] (first compound 0.02 µM, partner dose 1.66667 µM), the cell count in the test with WM115 was determined as 90.9%; in the test with WM1716, 88.2%; in the test on WM1745 it was 72.4%; with WM3526, 80.7%; with WM3619, 79.3%; with WM451Lu, 107%.

`Cc1nc(Nc2ncc(C(=O)Nc3c(C)cccc3Cl)s2)cc(N2CCN(CCO)CC2)n1` [dasatanib] + O=C(O)c1ccc(-c2c[nH]c3ncc(-c4ccccc4)cc23)cc1C1CCCC1 [GSK650394] (first compound 0.004 µM, partner dose 0.16 µM): the cell count is 75.7% in the test with WM115; 68.7% in the test on WM1716; 62.1% in the test on WM1745; 97.7% in the test with WM3526; 88.8% with WM3619; 91.4% in the test on WM451Lu.

For the compound `C[C@]1(c2nc3c(C(N)=O)cccc3[nH]2)CCCN1` [Veliparib] + O=S(=O)(c1ccccc1)N(CC(F)(F)F)c1ccc(C(O)(C(F)(F)F)C(F)(F)F)cc1 [T0901317] (first compound 1.4 µM, partner dose 1.4 µM), the cell count was found to be 75.9% with WM115; 74.8% with WM1716; 73.3% in the test on WM1745; 85.1% in the test on WM3526; 86.8% with WM3619; 90.7% in the test on WM451Lu.

`OCCn1cc(-c2cnc3nnn(Cc4ccc5ncccc5c4)c3n2)cn1` + CCc1ccc(CCOc2ccc(CC3SC(=O)NC3=O)cc2)nc1 [pioglitazone] (first compound 1 µM, partner dose 2 µM): the cell count in the test with WM115 is 96%; in the test with WM1716, 89.1%; in the test on WM1745 it was 82.5%; with WM3526, 94.9%; in the test with WM3619, 102%; in the test on WM451Lu it was 95.1%.

On to `C[C@]1(c2nc3c(C(N)=O)cccc3[nH]2)CCCN1` [Veliparib] + COc1cc(N2CCC(N3CCN(C)CC3)CC2)ccc1Nc1ncc(Cl)c(Nc2ccccc2S(=O)(=O)C(C)C)n1 [NVP-TAE684] (first compound 1.4 µM, partner dose 0.08 µM), for which the cell count in the test with WM115 came out at 73.1%; with WM1716 it was 94.4%; in the test on WM1745, 77.9%; with WM3526, 94.4%; in the test on WM3619, 78.4%; in the test with WM451Lu, 84.6%.

`NCC(=O)Nc1ccc(-n2nc(C(F)(F)F)cc2-c2ccc3c(ccc4ccccc43)c2)cc1` + CCCCCCCCCCCC1=C(O)C(=O)C=C(O)C1=O [Embelin] (first compound 1 µM, partner dose 1.2 µM): the cell count in the test on WM115 worked out at 95.9%; in the test with WM1716, 101%; with WM1745, 88.3%; in the test on WM3526, 97.5%; with WM3619 it was 94.7%; in the test on WM451Lu, 102%.

For the compound `Cc1nc(Nc2ncc(C(=O)Nc3c(C)cccc3Cl)s2)cc(N2CCN(CCO)CC2)n1` [dasatanib] + COc1ccc2c(c1)CCC1C2CCC2(C)C(NCCCCCCN3C(=O)C=CC3=O)CCC12 [U73122] (first compound 0.004 µM, partner dose 0.4 µM), the cell count stood at 72.3% in the test on WM115; 62.5% with WM1716; 61.6% in the test with WM1745; 91.7% in the test with WM3526; 84% in the test with WM3619; 83.6% with WM451Lu.

As to `C[C@]1(c2nc3c(C(N)=O)cccc3[nH]2)CCCN1` [Veliparib] + OCCn1cc(-c2cnc3nnn(Cc4ccc5ncccc5c4)c3n2)cn1 [PF04217903] (first compound 1.4 µM, partner dose 1 µM), the cell count in the test on WM115 amounted to 90.7%; in the test with WM1716 it was 86%; with WM1745, 90.7%; in the test with WM3526, 96.4%; with WM3619, 94.2%; with WM451Lu it was 124%.
